Source: PubChem BioAssay AID2060333 (Molecular Pharmacology Branch, DTP, NCI, 2025)
For part of its entries the source gives two or more results. This list holds those alone. The source may hold further records. Values that stand side by side are repeated measurements (runs, samples, wells, individuals or studies). Marks such as (2×) say how often a value occurs here.

Test system: 845751-090-R-J2-PDC tumor spheroid viability
Experiment: Anticancer human tumor 845751-090-R-J2-PDC patient-derived head and neck squamous carcinoma cell line growth inhibition [IpAb]
Details: spheroids with HUVEC and MSC; for viability, T/C: stronger effect = lower value
Description: Combinatorial screen of targeted agents with ipatasertib and abemaciclib in multi-cell type tumor spheroids
A high-throughput screen of multi-cell type tumor spheroids was designed to identify active combinations of targeted small molecules and ipatasertib or abemaciclib. Complex spheroids include a stromal component modeled by human endothelial cells (HUVEC) and fibroblasts modeled by human mesenchymal stem cells (MSCs). The concentration ranges selected for each drug and investigational agent were based upon clinically achievable concentrations if the clinical Cmax of the agent was known.
Compounds. The drugs and investigational agents: ipatasertib (NSC767898), abemaciclib(NSC768073), selumetinib (NSC741078), trametinib (758246), adavosertib (NSC754352), everolimus (NSC733504), sapanisertib (NSC764658), vemurafenib (NSC761431), venetoclax (NSC766270), copanlisib (NSC809693), apelisib (NSC765974), palbociblib (NSC758247), vemurafenib (NSC761431), dabrafenib (NSC764134), ravoxertinib (NSC781343), BMS-387032 (NSC767048), sotorasib (NSC818433), talazoparib (NSC767125) and afursertib (NSC778305), were obtained from the National Cancer Institute (NCI) Developmental Therapeutics Program Chemical Repository. The FDA-approved anticancer drug set is available from the NCI Developmental Therapeutics Program. […] The stock solutions were prepared in dimethyl sulfoxide (DMSO, Sigma-Aldrich, St. Louis, MO, cat. D2650) at 800-fold the tested concentration and stored at -70 degrees C prior to their use. All drugs and investigational agents were tested over a range starting from a high concentration at or near the clinical Cmax and decreasing in half-log increments. If the clinical Cmax for an agent had not been determined, the highest concentration tested was 10 microM.
NCI60 Cell Culture. NCI60 cell lines were obtained from the NCI Developmental Therapeutics Program Tumor Repository. For each lot of cells, the Repository performed Applied Biosystems AmpFLSTR Identifiler testing with PCR amplification to confirm consistency with the published Identifier STR profile for each cell line. Cells were kept in continuous culture for no more than 20 passages. The optimal seeding densities for each of the cell lines at each time point assessed were determined prior to performing the concentration response studies. Briefly, the NCI60 human tumor lines were grown as monolayers in RPMI 1640 medium supplemented with 10% FBS and 2 mmol/L L-glutamine.
An additional 9 lines were from the NCI60 cell line panel including MDA-MB-231 breast carcinoma, MDA-MB-468 breast carcinoma, MCF7 breast carcinoma, Hs578T breast carcinoma, MALME-3M melanoma, SK-MEL-2 melanoma, SK-OV-3 ovarian carcinoma, DU-145 prostate carcinoma, PC-3 prostate carcinoma, all cell lines along with major genetic alterations are listed on Table 2. Pooled donor human umbilical vein endothelial cells (HUVEC, Lonza, cat. CC-2519) and human mesenchymal stem cells (hMSC, Lonza, cat. PT-2501) were purchased from Lonza (Walkersville, MD).
PDMR cell lines were grown in complete medium (DC medium): Dulbecco's modified Eagle's medium (DMEM)/F12 supplemented with 5% fetal bovine serum (FBS), 2 mM L-glutamine, 100 U/mL penicillin and 100 µg/ml streptomycin, 0.4 µg/ml hydrocortisone, 10 ng/ml epidermal growth factor (EGF) recombinant human protein, 24 µg/mL adenine, and 0.1 mg/mL primocin. During culture from frozen stock vials, PDMR cells were cultured in the same medium containing 10 µM Y-27632 (see Table 3). The PDCs were cultured in complete DMEM/F12 media without 10 microM Y-27632 dihydrochloride for at least two passages prior to the screen. The pooled donor HUVEC and hMSC were cultured in endothelial cell growth medium 2 (PromoCell, Heidelberg, Germany, cat. C-22011) and mesenchymal stem cell growth medium 2 (PromoCell, cat. C-28009), respectively. For all experiments, HUVEC and hMSC were used at passages </=5.
[…]
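Also: spheroids exposed to compounds for 7 days before readout.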
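For viability, T/C in this document: CTG3D luminescence normalised so that 100% = DMSO vehicle control.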

Compound	viability, T/C (compound alone 0.01 µM)	viability, T/C (compound alone 0.0316 µM)	viability, T/C (compound alone 0.1 µM)	viability, T/C (compound alone 0.316 µM)	viability, T/C (compound alone 1 µM)	IC50 (compound alone, run of 05/18/2021)
CCN1CCN(Cc2ccc(Nc3ncc(F)c(-c4cc(F)c5nc(C)n(C(C)C)c5c4)n3)nc2)CC1	85.4, 80.7, 83.9, 86.8, 87.7, 80.2, 94, 61.3, 94.3, 118, 86.1, 89.8, 67.7%	79.5, 71.1, 71.6, 71.8, 56, 62.8, 83.9 (2×), 70.5, 75.4, 74.5, 63.6, 68.7%	80.5 (2×), 71.4, 69, 79, 57.5, 57.3, 80.8, 70.8, 60.4, 63.9, 86.2, 56.2%	54.9, 60 (2×), 43.7, 85, 57.3, 85.8, 75, 63.6, 53.5, 72.9, 61, 58%	75.7, 82.1, 65.3, 107 (2×), 78.9, 85.9, 98.1, 78.4, 63.5, 91.9, 94.4, 76.6%	–
CC(C)NCC(C(=O)N1CCN(c2ncnc3c2C(C)CC3O)CC1)c1ccc(Cl)cc1 (stereo not drawn)	–	–	55, 75.3, 46.4, 89.7, 49.8, 46.7, 47.4, 43.1, 61.4, 61.1, 39.5, 76.5, 57.4%	28.1, 27.3, 32.5, 31.1, 35.4, 26.8, 26.6, 29.3, 34.4, 39.8, 24.1, 55.4, 22.9%	–	122 nM, 199 nM, < 100 nM, 225 nM, 179 nM, 223 nM, 411 nM, 128 nM
